For eight substances, binding results are on record in paper PMC3244446.

Sequences of proteins named here, by UniProt entry; tags and fusion partners are left off. A change or cut given only in a name is not applied to a line headed by its entry. A line that says so, or that is headed by a name, gives the form on record, which may keep a tag or linker. Residues count along the entry.
GST-tagged CD44 hyaluronan binding domain 21–132 (CD44HABD) (P16070, residues 21-132): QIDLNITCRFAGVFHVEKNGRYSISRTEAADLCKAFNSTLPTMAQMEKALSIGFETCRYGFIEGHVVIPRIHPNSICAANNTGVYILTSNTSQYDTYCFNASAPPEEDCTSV
C-terminally Flag-tagged CD44 standard isoform, full-length (P16070, form named): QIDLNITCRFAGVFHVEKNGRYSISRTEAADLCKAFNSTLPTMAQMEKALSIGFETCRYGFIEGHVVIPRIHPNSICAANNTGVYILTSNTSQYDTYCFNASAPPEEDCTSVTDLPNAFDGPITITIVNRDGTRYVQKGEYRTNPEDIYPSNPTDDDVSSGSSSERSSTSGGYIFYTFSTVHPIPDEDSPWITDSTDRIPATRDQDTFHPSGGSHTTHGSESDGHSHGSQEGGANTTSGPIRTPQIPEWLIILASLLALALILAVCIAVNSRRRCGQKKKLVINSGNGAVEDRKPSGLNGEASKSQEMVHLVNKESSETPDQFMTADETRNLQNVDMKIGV
GST-tagged CD44HABD^R41AR78SY79S (CD443MUT), non-HA-binding triple mutant (P16070, form named): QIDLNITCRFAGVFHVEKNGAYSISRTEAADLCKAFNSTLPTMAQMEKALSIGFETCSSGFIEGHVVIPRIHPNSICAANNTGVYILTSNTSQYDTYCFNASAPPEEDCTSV
UniProt P08670: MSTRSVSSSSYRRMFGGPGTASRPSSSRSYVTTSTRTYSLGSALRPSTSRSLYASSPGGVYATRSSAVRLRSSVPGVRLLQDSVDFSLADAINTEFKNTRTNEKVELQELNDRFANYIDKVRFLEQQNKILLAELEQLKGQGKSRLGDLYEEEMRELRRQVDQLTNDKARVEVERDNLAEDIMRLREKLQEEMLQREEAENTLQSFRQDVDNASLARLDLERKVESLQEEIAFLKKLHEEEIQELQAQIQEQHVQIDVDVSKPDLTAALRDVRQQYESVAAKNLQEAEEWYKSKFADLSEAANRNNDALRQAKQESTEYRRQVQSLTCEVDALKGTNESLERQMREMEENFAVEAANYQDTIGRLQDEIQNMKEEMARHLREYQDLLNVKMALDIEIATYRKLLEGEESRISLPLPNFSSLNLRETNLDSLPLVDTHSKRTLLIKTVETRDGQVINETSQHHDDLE

The target in assay [1] is C-terminally Flag-tagged CD44 standard isoform, full-length (human) (UniProt P16070). Put plainly: co-IP; MCF-7 cells overexpressing CD44-Flag and vimentin-Myc; lysis in 40 mM Hepes pH 7.4, 120 mM NaCl, 1 mM EDTA, 0.6% CHAPS; anti-Flag-M2 affinity gel overnight 4°C; blot with anti-Myc.
The target of assay [2] is GST-tagged CD44HABD^R41AR78SY79S (CD443MUT), non-HA-binding triple mutant (human) (UniProt P16070). The assay is described as follows: pull-down; GST-CD44HABD or GST-CD443MUT on glutathione beads, HUVEC lysate, overnight 4°C; immunoblot with anti-vimentin V9; only the target purified.
Assay [3] has as its target GST-tagged CD44 hyaluronan binding domain 21–132 (CD44HABD) (human) (UniProt P16070). The description is as above.
The target of assay [4] is GST-tagged CD44HABD^R41AR78SY79S (CD443MUT), non-HA-binding triple mutant (human) (UniProt P16070). The assay is described as follows: pull-down; GST-CD44HABD or GST-CD443MUT on glutathione beads, lysates of MCF-7 cells transfected with full-length vimentin or deletion mutants; immunoblot with tag-specific antibodies; only the target purified.
Assay [5] concerns the target GST-tagged CD44 hyaluronan binding domain 21–132 (CD44HABD) (human) (UniProt P16070). Described as above.

No constants are given. Whether binding was seen depends on the method and setting. In cells and extracts the contact can be indirect. Some entries that bind do so weakly or less than the wild type.

As for “Myc-tagged vimentin, full-length (from UniProt P08670 1-466)”, the binding result in assay [1] is “binds”.

Regarding “endogenous vimentin of HUVEC (from UniProt P08670 1-466)”, the binding result in assay [2] and in assay [3] was “binds” in each case. Consider “full-length vimentin expressed in MCF-7 cells for GST pull-down (from UniProt P08670 1-466)”, for which the binding entry in assay [4] and in assay [5] was “binds” in each case.

Turning to “vimentin deletion mutant VIM1-96 (head domain) (from UniProt P08670 1-96) (domain or fragment)”, the binding result in assay [4] and in assay [5] was “binds” throughout. As for “vimentin deletion mutant VIM1-245 (head domain and alpha-helices 1A-B) (from UniProt P08670 1-245) (domain or fragment)”, the binding result in assay [4] and in assay [5] was “binds” in each case. For “vimentin deletion mutant VIM97-466 (lacks the head domain) (from UniProt P08670 97-466) (domain or fragment)”, the binding result in assay [4] and in assay [5] was “no binding” throughout. In the case of “vimentin deletion mutant VIM246-466 (C-terminal half from alpha-helices 2A-B) (from UniProt P08670 246-466) (domain or fragment)”, the binding entry in assay [4] and in assay [5] was “no binding” in each case.

Consider “vimentin deletion mutant VIM407-466 (tail domain) (from UniProt P08670 407-466) (domain or fragment)”, for which the binding result in assay [4] and in assay [5] was “no binding” throughout.
